# Data from the supplement of paper PMC3334620.
# Whole data set: some 33,000 sequences, median “E-score (-0.5 to 0.5)” near -0.01, cut for the highest 2% near 0.26. The list shows a part of the results.
# Target: Ste12 (UniProt P13574)
# Assay: PBM E-score (8-mer binding enrichment) (E-score (-0.5 to 0.5)); higher = stronger / more preferred TF binding; most listed sequences are background and not binding sites
# Conditions: protein concentration: 200 nM; construct: GST-DNA-binding domain
# Procedure: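 Universal 'all 10-mer' protein binding microarrays (Agilent AMADID 015681) probed with GST-tagged S. cerevisiae TFs (full-length or DBD) made by in vitro transcription/translation (PURExpress), about 100-200 nM. Bound TF was detected with fluorescent anti-GST. Each ungapped 8-mer (which stands for itself and its reverse complement) is scored by the PBM enrichment score (E-score), a modified Wilcoxon-Mann-Whitney statistic from -0.5 to +0.5, computed with the Universal PBM Analysis Suite. Scale: above 0.35 generally sequence-specific binding.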
row,Sequence,PBM E-score
1,AGTGACAC,-0.0528
2,GAATCACA,0.0627
3,CCCCCTTA,-0.17
4,AGCTTGAC,0.0986
5,CTTGGCTC,-0.189
6,AGCGGAGG,-0.165
7,AAAGCTCT,-0.14
8,AACCTATC,0.0216
9,CTTACATA,0.056
10,CAATCGTC,0.108
11,ACGAAGGG,-0.167
12,CCGTCACA,0.0955
13,TACTTTCA,-0.0131
14,GGCGTTAC,0.174
15,ACCTTAGG,-0.0732
16,ACGTAGGC,-0.224
17,AGATACCG,-0.109
18,CAAGTACG,-0.165
19,ATCCTGCA,0.0476
20,AGTCCTCA,-0.123
21,CGCAGACG,-0.0385
22,AGAAGCCC,-0.0519
23,CATAGGTC,-0.154
24,GGGCCCCA,-0.146
25,AAGGTCCA,-0.246

row,Sequence,PBM E-score
1,GTGTTGAA,-0.00889
2,GACCGATC,-0.141
3,ATTGAATG,0.185
4,GGGCCACA,-0.128
5,ATTCGCGC,-0.0541
6,CCGTCGTC,-0.243
7,CCGTATCG,-0.0954
8,CCGCGCAG,-0.0674
9,CAGACGAG,-0.0637
10,CGCTTAAC,-0.0505
11,GCTGTGGA,-0.122
12,ACAGACGG,-0.124
13,AAATGGCC,-0.216
14,ACTTACGG,-0.0382
15,ATGAGGCC,-0.0156
16,CTTGACTC,-0.0327
17,GGTCTGAA,0.0815
18,AGCCGATA,-0.226
19,GTAGAAAA,0.158
20,TGATCTAA,0.0892
21,CGGATGTA,-0.0651
22,AGGAGGCA,-0.234
23,AGGCTTCC,-0.0298
24,CCCGTGAA,-0.0332
25,GAATCGCC,-0.0941

row,Sequence,PBM E-score
1,TTGGTAAA,0.171
2,ATACACAC,-0.0713
3,AGTCGTGG,-0.136
4,GAACAAAC,0.181
5,GTATCACA,0.114
6,TTACAGAA,0.133
7,AACATCAC,-0.108
8,GGAATCGA,-0.151
9,CCATAGAA,-0.0941
10,CAAATTCC,0.0234
11,CACGGTTA,0.1
12,ACGGCGGA,0.0906
13,CCGGGCCC,0.0509
14,AGTACCAA,0.104
15,AGCACGTC,-0.149
16,CAAAGGGA,-0.0794
17,TGCGTTAA,0.00708
18,CCCTTCGC,-0.118
19,ACTCCGGG,0.108
20,TCTAGCCA,-0.0679
21,AAAGCAAC,-0.0355
22,AACAGTCG,-0.114
23,GGGGATAA,0.133
24,AACATTAT,0.125
25,CAGATGTA,-0.172

row,Sequence,PBM E-score
1,AAGCACAG,-0.00648
2,AAATGTAT,0.243
3,CAAGCCGA,0.101
4,GGTCTTCA,-0.164
5,CGGGTTCA,0.0649
6,CATATAAC,0.203
7,ACCCCACT,0.0311
8,AGTCCACA,-0.173
9,CACTTCCA,-0.0241
10,AGCGCCTC,0.00642
11,ACAGTATG,0.0543
12,TGCTGACA,-0.0721
13,CGCAAAAA,0.232
14,CAAGAATC,0.202
15,AACAACCG,0.0778
16,AAATATAT,0.273
17,ATCAACGA,-0.0145
18,CAGGACAC,-0.167
19,TATAATCA,0.07
20,GAGTGCCA,-0.263
21,ATAGAGAT,0.0572
22,GCAGCCGA,0.0732
23,ATCATATC,0.147
24,GACAATGA,-0.166
25,ACATTGCG,0.0529

row,Sequence,PBM E-score
1,AACACCCA,-0.0313
2,GCGCTGTA,0.0787
3,GCACGAAA,0.177
4,ATTCGTGA,0.0365
5,CGCTACTA,0.017
6,GCCAAGTA,-0.075
7,AATCTCTG,0.0459
8,CAATAAAA,0.128
9,CCGGCTGC,0.0618
10,AGAGAGAA,-0.202
11,AAAAGGCC,-0.148
12,CTGATGGA,-0.0795
13,AGTCTGAA,0.0942
14,ACGCCTTG,0.035
15,AAAACAGT,0.247
16,ACAGCCCG,-0.0948
17,ATAGTCTC,0.132
18,ACTCAGAC,0.0695
19,AGTACGGA,-0.00441
20,AAAGCTTT,0.0791
21,ACTGAGCC,-0.00502
22,AGGACAAT,-0.0807
23,ATGCATTA,0.114
24,GATAGCAA,0.14
25,CCGTTATA,0.00346

row,Sequence,PBM E-score
1,ACACAGAG,-0.0618
2,AACTCCGA,0.14
3,ACTAACAG,0.236
4,CCAATTAA,0.151
5,AAAAACGG,0.174
6,AGTGTTAA,0.00597
7,GAGTCAGA,0.0439
8,AGAGGAAA,0.0478
9,CTGTAGAA,0.0983
10,CACGTATC,-0.0527
11,CAGGGTCA,-0.191
12,ATGGAGGA,-0.14
13,AGGGCGCA,-0.161
14,CTGAGCGA,-0.13
15,GAGGCCTA,-0.186
16,ACAATCCG,-0.0367
17,GGTAAAAC,0.239
18,GGAGAACA,-0.0881
19,CAAACCTG,-0.0301
20,CTAGCAAG,-0.218
21,ATAACTGG,0.1
22,GAAGGAGA,-0.107
23,AAATCCAA,0.131
24,CAGAGAGA,-0.113
25,AATTATTC,0.188

row,Sequence,PBM E-score
1,CGGGGTAG,-0.106
2,CAGTGCCG,-0.0275
3,GCAGATTA,-0.0176
4,AAATCGCA,0.0432
5,AGCTAAGG,-0.394
6,ACCACCAC,0.03
7,AGAAATTC,-0.037
8,CGGTTTCA,0.452
9,CCTTGTGA,0.0382
10,CGCTGCCC,-0.307
11,CACAACGA,0.0672
12,CAAGGTGG,-0.0371
13,GTATCAGA,0.119
14,GGACTGCA,-0.0935
15,CAGTTGTC,-0.0952
16,TATAGGAA,0.00194
17,GACTCACC,-0.207
18,GCCACTCA,-0.0406
19,CTTCGAAC,0.0217
20,CGGACCCC,-0.0902
21,ACATCAGC,0.0739
22,GACTAGAA,0.113
